# Results: the supplement of paper PMC10338343
# ± gives the standard deviation. Only a part is listed here, and it is no random draw.
# System: MIWI (PIWIL1) piRISC loaded with L1MC piRNA (30 nt)
# Experiment: pre-steady-state target cleavage rate (min^-1); MIWI and MILI are mouse PIWI proteins and EfPiwi is from a freshwater sponge; tags in brackets are library labels; higher = faster piRNA-guided slicing of the target
# Conditions: guide: L1MC piRNA 5'p-UAACUAAAUACUAUGCAAGCUGUAGGUCCU
# Summary of the method: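 A transcribed, DNA-blocked target RNA library (0.1 nM) and 1 nM active affinity-purified piRISC bearing one synthetic guide were incubated in HEPES–potassium acetate buffer at 33 °C for 0–8 or 0–960 min, either with or without 500 nM GTSF1 partner protein. Uncleaved targets were sequenced, normalised to depth and to weakly complementary targets, and pooled over three trials, with k3 capped at 0.0001 min^-1. The pre-steady-state cleavage rate was derived with a burst-and-steady-state fit.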
# [1] = auxiliary factor: 500 nM mouse GTSF1
# [2] = auxiliary factor: none (no GTSF1)
Sequence,pre-steady-state target cleavage rate [1],pre-steady-state target cleavage rate [2]
UCCACGUACAGCUUGCAUAGUAUUUUGUUA,0.594 ± 0.033,0.0354 ± 0.0053
UGGUCCUACAGCUUGCUUAGUAUUUAGUUA,1.21 ± 0.035,0.0478 ± 0.0087
UGGAGCUACUGCUUGCAUAGUAUUUAGUUA,1.09 ± 0.055,0.0621 ± 0.0085
AGGAGGAACAGCUUGCAUAGUAUUUUCAAA,0.288 ± 0.045,0.00367 ± 0.0022
UCCUGGAUCAGCUUGGAUAGAAUUUAGUUA,0.0979 ± 0.015,0.0151 ± 0.0053
UCCUGGAUCAGCUUGCAUAGUAUAAUGUUA,0.299 ± 0.021,0.00843 ± 0.0028
UCCUCCUACAGCUUGGAUAGUAUUUUGUUA,0.77 ± 0.052,0.0251 ± 0.004
UCGACCUAGAGCUUGCAUAGUUUUUAGUUA,0.325 ± 0.023,0.0184 ± 0.0035
UCGACCUAGACCUUGCAUAGUAUUUAGUUA,0.947 ± 0.035,0.0351 ± 0.0063
UCGAGCUACAGGUUGCAUAGUAUUUAGUUA,1 ± 0.049,0.0349 ± 0.0061
UCCACCUACUGCUUGCAUAGUAUUAAGUUA,0.37 ± 0.029,0.0151 ± 0.0024
UGGACCUAGAGCUUGCAUAGUAUUUACUUA,0.192 ± 0.027,0.025 ± 0.004
UCGACCAACAGCUUGCAUAGUAUAUAGUUA,0.823 ± 0.049,0.0241 ± 0.0064
UCCACCUACAGCUUGCAUAGUGUUUAGUUA,0.633 ± 0.032,0.0474 ± 0.0078
UCCUGGAUGAGCUUGCAUAGUAUUUAAUUA,0.139 ± 0.027,0.015 ± 0.0037
UCCUGGAUGAGCAUGCAUAGUAUUUAGUUA,0.675 ± 0.047,0.0136 ± 0.0041
UCCUGGAUGAGCUAGCAAAGUAUUUAGUUA,0.186 ± 0.017,0.0055 ± 0.0027
UCGACCUACAGCUUGCAUAGUAUUUAGUAUA,0.98 ± 0.048,0.0194 ± 0.0059
UCCUCCUACAGCUUGCAUUGUAAUUAGUUA,0.468 ± 0.022,0.009 ± 0.0025
AGGACCUACAGCUUGCAAAGUAUUUACUUA,0.447 ± 0.045,0.0225 ± 0.005

Sequence,pre-steady-state target cleavage rate [1],pre-steady-state target cleavage rate [2]
UCCUGGAUGAGCUUGCAUAGUAUUUACUUA,0.152 ± 0.031,0.0197 ± 0.0045
UCCUGCUACACCUUGGAUAGUAUUUAGUUA,0.292 ± 0.051,0.0186 ± 0.0031
UCCUGGAACAUGCUUGCAUAGUAUUUAGUUA,0.696 ± 0.028,0.0566 ± 0.011
UCCUGGAUCAGCUUGGAUAGUUUUUAGUUA,0.23 ± 0.022,0.0253 ± 0.0077
AGGACCUAGAGCUAGCAUAGUAUUUAGUUA,0.983 ± 0.05,0.0238 ± 0.0054
UCGACCUACAGCUUGCAUAGUAUUUAGUUUA,1.27 ± 0.058,0.0631 ± 0.0099
AGGACCUAGAGCAUGCAUAGUAUUUAGUUA,1.04 ± 0.07,0.0381 ± 0.0072
UCGAGCUACAGCUUGCAUAGUAUUAAGUUA,0.869 ± 0.06,0.0216 ± 0.0048
UCCUGCUACAGCUUGCAAAGUAUUUAGUUA,0.619 ± 0.037,0.03 ± 0.0055
UCCUGGAUCAGCUUGCAUAGGAUUUAGUUA,0.0196 ± 0.0032,0.00856 ± 0.0035
UCGACGUACAGCUUGCAUAGUAUUUAGUAA,1.01 ± 0.062,0.0599 ± 0.011
UCCACCUACAGCUAUGCAUAGUAUUUAGUUA,0.825 ± 0.033,0.0244 ± 0.0053
AGGACCUAGAGCUUGCAAAGUAUUUAGUUA,1.17 ± 0.054,0.0284 ± 0.0069
UCCUGGUAGAGCUUGCAUAGUAUUUAGUUA,0.758 ± 0.057,0.04 ± 0.0087
UCCUGCUAGAGCUUGGAUAGUAUUUAGUUA,0.527 ± 0.042,0.0377 ± 0.0059
UCCUGGAACUCCUUGCAUAGUAUUUAGUUA,0.46 ± 0.048,0.00821 ± 0.0033
UGGACCUUCAGCUUGCAUUGUAUUUAGUUA,0.904 ± 0.04,0.037 ± 0.0098
UCGACCUACCAGCUUGCAUAGUAUUUAGUUA,1.29 ± 0.064,0.0725 ± 0.016
UCCUGGAUGUGCUUGGAUAGUAAUUAGUUA,0.0587 ± 0.013,0.0105 ± 0.0032
UCCUGCUACUCGUUGCAUAGUAUUUAGUUA,0.489 ± 0.041,0.00699 ± 0.0017

Sequence,pre-steady-state target cleavage rate [1],pre-steady-state target cleavage rate [2]
UCCUGCUACUGCAUGCAUAGUAUUUAGUUA,1.02 ± 0.077,0.0216 ± 0.0045
UCCUCCUUCAGCUUGCAUUGUAUUUAGUUA,1.02 ± 0.037,0.0257 ± 0.0061
UCCUGGAUGUGGUUGCAUAGUAUUUAGUUA,0.0576 ± 0.0088,0.00657 ± 0.0025
UGGACCUUGAGCUUGCAUAGUAUUUACAAA,0.168 ± 0.028,0.00517 ± 0.0025
UCCUCCUACAGCUUGCAUAGUUUUUAGAUA,0.228 ± 0.036,0.00676 ± 0.0025
UCCUGGAUCAGCUUGCAUAGUGUUUAGUUA,1.12 ± 0.046,0.0408 ± 0.0089
UCGACCUUCAGCUUGCAUAGUAUUUUGUUA,0.947 ± 0.053,0.0436 ± 0.0073
UCCUGGUACAGCUUGGUUAGUAUUUAGUAA,0.412 ± 0.079,0.0101 ± 0.0031
UCCUGGAACUGCUUGCAUAGUAUUUAGAAA,0.179 ± 0.025,0.00529 ± 0.0023
UGACCUACAGCUUGCAUAGUAUUUAGUUA,1.57 ± 0.061,0.0842 ± 0.016
UCCUGGAUGAGCUUGGAUACUAUUUAGUUA,0.0602 ± 0.015,0.00625 ± 0.0037
UCCUGGAUGUGCUUGCAUAGUAUCUAGUUA,0.259 ± 0.029,0.0261 ± 0.0071
UCCUGGUACAGCAUGGAUAGUAUUUAGUUA,0.573 ± 0.042,0.0146 ± 0.0039
AGGACCAACAGCUUGCAUAGUAUUUACAAA,0.454 ± 0.065,0.0105 ± 0.0038
UCCACCUACAGCUUGCAUAGUUUUAAGUUA,0.196 ± 0.021,0.00782 ± 0.0019
UGGACCUACAGCAUGCAUAGAAUUUAGUUA,0.318 ± 0.041,0.0107 ± 0.0035
UCCUCCUACUGCUUGCAUAGUAUUUUGUUA,0.615 ± 0.023,0.0334 ± 0.0062
UCCACGAUCAGCUUGCAUAGUAUUUAGUAA,1.09 ± 0.079,0.0387 ± 0.009
UGGACCUACAGCUAGCAUACUAUUUAGUUA,0.383 ± 0.017,0.0162 ± 0.0039
AGGACGUACAGCUUGCAUAGUAUUUAGUUA,1.19 ± 0.048,0.0866 ± 0.014
